Out of some 420,000 compounds screened, about 50,000 (12%) were called active. Inconclusive results, whose numbers are uncertain, are shown with a selection of clear calls. Calls come from the whole dose curve; as a rule, active = well fitted inhibition curve with a large enough effect; inconclusive = small, poorly fitted or top-dose-only effect; inactive = flat fitted curve, though single readings scatter. No potency is given beside an inconclusive call; the fits are too rough.
Experiment: qHTS for Inhibitors of human tyrosyl-DNA phosphodiesterase 1 (TDP1): qHTS in cells in presence of CPT; note: nearly all actives have a fitted effect of over 55% in size
Settings: chicken DT40 Tdp1-/-;hTDP1 cells + 20 nM CPT, ATP luminescence, 48 h; activity change, negative = growth inhibition: at 46.2 µM (top of the series) unless noted
Procedure, shortened: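 Chicken DT40 Tdp1-/- cells stably complemented with human TDP1 were seeded at 400 cells/well in medium containing 20 nM camptothecin, exposed to pin-transferred compounds, and grown at 37 °C for at least 48 hr. Viability was read as ATP luminescence.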
% is set by controls: 0 for no effect and ±100 for the full control effect; potency is the fitted concentration of half-maximal effect; tags give direction and shape of the fitted curve.

SMILES | Potency | activity change, negative = growth inhibition
CCN(CC)CCN(C)C1CCC(c2ccccc2)CC1 (stereo not given) | active: 16.4 µM | –
CCN1C(=O)[C@@H]2[C@@H]3CN(S(=O)(=O)c4ccc(C)cc4)[C@@H](c4cccc5ccccc45)[C@@H]3C(=O)C[C@@H]2C1=O | inconclusive [inhibitor, single point] | –
CCOC(=O)C(NC(=O)Nc1ncccn1)(Oc1ccccc1)C(F)(F)F (stereo not given) | inconclusive [inhibitor, single point] | –
CN1c2ccccc2C(C)(C)C12CC(c1cccc(S(=O)(=O)N3CCCC3)c1)=NO2 (stereo not given) | inconclusive [inhibitor, single point] | –
COc1ccc(NC(=O)CC2C(=O)N(c3cccc(OC)c3)C(=O)N2Cc2ccc3c(c2)OCO3)cc1 (stereo not given) | inconclusive [inhibitor, single point] | –
O=C(Nc1ccccc1)C1Cc2c(-c3ccc(Cl)cc3)ccnc2O1 (stereo not given) | inconclusive [inhibitor, single point] | –
CCOC(=O)C1(CCc2ccccc2)CCN(Cc2cnc(N(C)C)s2)CC1 | inconclusive [inhibitor, single point] | –
Cc1ccc(/C=N/NC(=O)NC2CCCCC2)o1 | inactive | –
CC(/C=N/Nc1nc(C)cc(=O)[nH]1)=C\c1ccccc1 | inconclusive [inhibitor, single point] | –
COc1ccccc1NC(=S)c1ccccc1 | inactive | –
CCOC(=O)c1ccc(NC(=O)c2nc[nH]c2C(=O)N(C)CCO)cc1 | inactive | –
Cc1ccc2nc(-c3cccnc3)c(NC3CCCC3)n2c1 | inconclusive [inhibitor, partial curve, poor fit] | –
CCOC(=O)Cc1csc(NC(=O)COc2ccccc2)n1 | inactive | –
Cc1ccc(-c2cn(-c3ccc(Cl)cc3)c(S(=O)(=O)CC(=O)Nc3ccccc3)n2)cc1 | active: 25.9 µM | –
CC(C)(C)NC(=O)N1CCN(c2nc(-c3ccccc3)ns2)CC1 | inconclusive [inhibitor, partial curve] | –
COCCN(C(=O)Cn1nnc2ccccc21)C(C(=O)NC1CCCC1)c1cc(OC)ccc1OC (stereo not given) | inconclusive [inhibitor, single point] | –
Cc1ccc(S(=O)(=O)N(C)c2cc(S(=O)(=O)N3CCC(C)CC3)c(C)cc2C)cc1 | inconclusive [inhibitor, single point] | –
COc1ccc(-c2cc3nc(NCCNC(C)=O)n(C)c(=O)c3s2)c(C)c1 | inconclusive [inhibitor, single point] | –
CC1(C)CC(=O)C(C(N)=NC(=O)c2ccccc2)=C(O)C1 | inactive | –
COc1ccc(S(=O)(=O)c2nnn(-c3ccc(C)c(Cl)c3)c2C)cc1 | – | inconclusive: -30.9% [inhibitor]
CCOc1ccc(C(=O)NC(=S)Nc2cccnc2)cc1 | inactive | –
Cc1cc(C)cc(NC(=O)C2CCN(S(=O)(=O)c3cccc(-c4noc(C)n4)c3)CC2)c1 | active: 16.4 µM | –
COc1ccccc1NC(=O)C1=C(C)Nc2nc(-c3cccs3)nn2C1c1cccnc1 (stereo not given) | inconclusive [inhibitor, single point] | –
COc1ccc(C(C)=O)cc1CSc1ccc(S(=O)(=O)N2CCCCC2)cn1 | inconclusive [inhibitor, single point] | –

SMILES | Potency | activity change, negative = growth inhibition
CCn1c(SCC(=O)NCc2ccc3c(c2)OCO3)nnc1-c1cccs1 | inactive | –
Cn1c(=O)c2c(nc(N3CCOCC3)n2C/C=C/c2ccccc2)n(C)c1=O | inconclusive [inhibitor, partial curve] | –
OC(c1ccc(F)cc1)c1nc(-c2ccccc2)cs1 (stereo not given) | inconclusive [inhibitor, single point] | –
COc1ccc2c(c1)OC[C@H]1[C@H]2N2C(=O)c3cc(C)ccc3NC(=O)[C@@]2(C)[C@H]1c1ccccc1 | active: 16.4 µM | –
COC(=O)[C@]12CCCCC=C1N(Cc1cccc3ccccc13)C(=O)[C@H](CC(=O)N1CCC(c3ccccc3)CC1)C2 | inconclusive [inhibitor, single point] | –
Cc1ccc(-n2c(SCC(N)=O)nc3c(c2=O)C2(CCCC2)Cc2ccccc2-3)cc1 | inactive | –
CCOC(=O)CC(=O)CSc1nc(CC)c(C)cc1C#N | inconclusive [inhibitor, single point] | –
Cn1c(=O)c2cc(NC(=O)CC(C)(C)C)ccc2n1-c1ccccc1F | inconclusive [inhibitor, partial curve] | –
CCCCCCCCCCCCCCC[C@@H](O)[C@H](CO)NC(=O)CCCCCCC | inconclusive [inhibitor, single point] | –
CC(C)CCNC(=O)C(c1cccnc1)N(CCc1ccccc1)C(=O)Cn1nnc2ccccc21 (stereo not given) | inactive | –
CCOc1ccccc1C(=O)N(Cc1cccs1)C1CCS(=O)(=O)C1 (stereo not given) | inactive | –
C#CCOc1nc(Nc2cccc([N+](=O)[O-])c2)nc(OCC#C)n1 | inconclusive [inhibitor, single point] | –
CCc1noc(C)c1C(=O)Nc1nc(-c2ccc(Cl)cc2Cl)c(C)s1 | inconclusive [inhibitor, partial curve, poor fit] | –
CCc1c(C)[nH]c2ccc(OC)cc2c1=S | inconclusive [inhibitor, single point] | –
COc1ccc(Nc2nc(N)nc(CN3CCc4ccccc4C3)n2)cc1 | inconclusive [inhibitor, single point] | –
Cc1cc(C(=O)NNC(=S)NCC(C)C)no1 | inactive | –
Cc1ccc(CNC(=O)CCCN2C(=O)COc3ccc(C)cc32)cc1 | inconclusive [inhibitor, single point] | –
Clc1ccc(-c2nc3c4ccccc4ccn3c2Cc2ccsc2)cc1 | active: 10.3 µM | –
Fc1ccc(Br)cc1C1C=C(c2ccc(Br)cc2)Nc2nnnn21 (stereo not given) | inconclusive [inhibitor, single point] | –
CSCCC(NC(=O)COc1ccccc1)C(=O)N1CCCCC1 (stereo not given) | inactive | –
CCOC(=O)C1=NOC(COc2ccccc2C=O)C1 (stereo not given) | inconclusive [inhibitor, single point] | –
Cc1cc(-c2ccccc2)c(C#N)c(N)n1 | inactive | –
COc1ccc(NC(=O)c2ccc(NC(=O)c3ccco3)cc2)c(OC)c1 | inconclusive [inhibitor, single point] | –
CCOC(=O)C1=C(C)NC(=S)N(C(C)=O)C1c1ccc(OC)c(OC)c1 (stereo not given) | inactive | –

SMILES | Potency | activity change, negative = growth inhibition
CC1=Nc2cc(C(=O)NC(C)C)ccc2Sc2ccc(C)cc21 | active: 4.61 µM | –
CCOC(=O)c1ccc(Nc2ncnc3ccc(C)cc23)cc1 | inactive | –
COc1cc(NC(=O)c2ccc(-c3c(C)noc3C)c3ccoc23)cc(OC)c1OC | active: 13 µM | –
O=C(COc1ccc(Cl)cc1)N/N=C/c1cccc2cccnc12 | inconclusive [inhibitor, single point] | –
Cc1cccc(NC(=O)C(=O)NCCc2csc(-c3ccc(C(F)(F)F)cc3)n2)c1C | inactive | –
CCn1c(CNc2nc3ccccc3n2C(C)C)nc2ccccc21 | active: 14.6 µM | –
CCOC(=O)c1cc(-c2ccc(OC(F)F)cc2)nc2c1c(=O)[nH]c(=O)n2C | inactive | –
O=C(Nc1cccc(S(=O)(=O)N2CCCCC2)c1)c1cc([N+](=O)[O-])ccc1N1CCOCC1 | inconclusive [inhibitor, single point] | –
Cc1ccccc1-c1cnc(C(O)c2ccc(F)cc2C)[nH]1 (stereo not given) | inconclusive [inhibitor, single point] | –
COc1ccc(NC(=O)/C(C#N)=C/c2ncc([N+](=O)[O-])n2C)c(OC)c1 | inconclusive [inhibitor, partial curve, poor fit] | –
O=C(NCCc1ccc(F)cc1)c1ccncc1 | inconclusive [inhibitor, single point] | –
CCCNC(=O)C(Cc1cccc(OC)c1)NC(=O)c1ccc(C(C)(C)C)cc1 (stereo not given) | inconclusive [inhibitor, partial curve, poor fit] | –
Cc1c(C(=O)NCc2ccc3c(c2)OCO3)sc(=O)n1Cc1ccc(S(C)(=O)=O)cc1 | inconclusive [inhibitor, single point] | –
O=S(=O)(Nc1ccccc1)c1ccc(-c2csnn2)cc1 | inconclusive [inhibitor, partial curve] | –
CCOc1nc2ccccc2cc1/C=C/C(=O)O | inactive | –
COc1ccc2nc(-c3ccccn3)[nH]c2c1 | inactive | –
COCCN1C(=O)/C(=C/c2ccc(N3CCCC3)cc2C)SC1=S | inconclusive [inhibitor, single point] | –
O=C(NCc1ccccc1)C12CN(Cc3ccccc3)CC1C(c1cccc([N+](=O)[O-])c1)=NO2 (stereo not given) | inconclusive [inhibitor, single point] | –
COc1ccccc1C(CNC(=O)c1cccc(S(=O)(=O)Nc2ccc(C)cc2)c1)N1CCCC1 (stereo not given) | inconclusive [inhibitor, single point] | –
NC(=O)c1nsc(C(=O)N(c2ccccc2)C(C(=O)NCc2ccc(F)cc2)c2ccc(O)cc2)c1N (stereo not given) | active: 20.6 µM | –
S=c1[nH]ncn1/N=C/c1ccccc1 | inconclusive [inhibitor, single point] | –
CCCCN1C(=N)N([C@@H](C)CN2CCC[C@H]2CN2C(N)=NC[C@@H]2Cc2ccccc2)C[C@H]1[C@H](C)CC | inconclusive [inhibitor, single point] | –
